Measurements taken from PubChem BioAssay AID2675 (National Center for Advancing Translational Sciences (NCATS), 2010).
In all, about 280,000 compounds went through this assay and about 100 (0.036%) were called active. Inconclusive means that the source gave no clear call. Such entries were picked first, then a sample of the others. Calls follow the shape of the dose curve; as a rule, active = well fitted inhibition curve with a large enough effect in the signal ratio, with a control signal flat (not every such curve was filed as active); inconclusive = small, poorly fitted or top-dose-only effect, or effect the other way, or a change in a side signal; inactive = no such curve, though single readings can be large or run the other way; the % refers to the signal ratio. Where the call is inconclusive, the potency comes from a doubtful curve fit. “Side channel” marks fits to a control or component signal instead of the main read-out.

target: Muscleblind-like protein 1 (Homo sapiens) (UniProt Q9NR56); test: qHTS Assay for Inhibitors of MBNL1-poly(CUG) RNA binding; settings: TR-FRET MBNL1-His/biotin-(CUG)12 binding, 665/545 ratio; activity change, negative = inhibition: at 57.5 µM (top of the series)
Outline: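 MBNL1-His + Biotin-(CUG)12, cpd titration 92 nM–58 uM; Tb anti-His Ab 0.055 ng/ul, SA-XL665 5 nM (final); 60 min RT; ratiometric 665/545 nm, Ex 340 nm; normalized to buffer and full-complex controls.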
% is scaled to controls: 0 for no effect and ±100 for the full control effect; potency is read from the fitted curve at half-maximal effect; tags tell the direction and shape of the fitted curve or compound fluorescence and quenching.

UniProt Q9NR56, sequence (Q9NR56 whole entry, looked up): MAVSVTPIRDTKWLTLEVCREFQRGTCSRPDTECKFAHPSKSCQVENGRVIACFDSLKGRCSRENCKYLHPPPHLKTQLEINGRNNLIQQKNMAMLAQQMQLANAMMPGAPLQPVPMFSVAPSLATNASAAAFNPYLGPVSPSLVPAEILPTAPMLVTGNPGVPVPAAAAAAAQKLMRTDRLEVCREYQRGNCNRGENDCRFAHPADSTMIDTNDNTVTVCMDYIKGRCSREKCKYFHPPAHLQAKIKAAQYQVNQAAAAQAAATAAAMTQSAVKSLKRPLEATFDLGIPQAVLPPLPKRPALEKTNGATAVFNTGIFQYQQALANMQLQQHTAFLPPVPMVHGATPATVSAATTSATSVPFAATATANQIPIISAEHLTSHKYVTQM

Compound	Potency	activity change, negative = inhibition
Cc1c2cc(O)c(=O)cc-2oc2cc(O)c(O)cc12	inconclusive: 25.1 µM [quencher, side channel, partial curve]	
CN1CCN(S(=O)(=O)c2ccc(Sc3nnnn3-c3ccccc3)c([N+](=O)[O-])c2)CC1	inconclusive: 3.55 µM [quencher, side channel, full curve]	
CN1C(=O)/C(=N\OC(=O)c2cccc3ccccc23)c2ccccc21	inconclusive: 11.2 µM [quencher, side channel, partial curve]	
CN(C)C(CNc1ccc(S(C)(=O)=O)cc1[N+](=O)[O-])Cc1ccccc1 (stereo not given)	inconclusive: 14.1 µM [quencher, side channel, partial curve]	
CC(Cc1c[nH]c2ccccc12)C(=O)O (stereo not given)	inconclusive: 158 µM [inhibitor, single point]	
Clc1ccc(-c2nnc(SCc3nc4ccccc4s3)o2)cc1	inconclusive: 0.282 µM [fluorescent, side channel, full curve]	
Cc1cc([N+](=O)[O-])ccc1NC(=O)CSc1nnc(C)n1C	inconclusive: 39.8 µM [quencher, side channel, partial curve, poor fit]	
O=C(O)c1ccc2c(c1)C(=O)N(c1ccc(/C=C/C(=O)c3ccccc3)cc1)C2=O	inconclusive: 7.08 µM [quencher, side channel, partial curve]	
CCOC(=O)Cc1[nH]nc2c1C(c1ccoc1)C(C#N)=C(N)O2 (stereo not given)		inactive: 2.33%
O=C(N/N=C/c1cccc(O)c1)c1cc(-c2ccccc2)nc2ccccc12		inactive: -7.23%
CCOC(=O)c1sc(-c2ccccn2)nc1C	inconclusive: 31.6 µM [quencher, side channel, single point]	
O=C(CCCCCNC(=O)c1ccccc1)N/N=C/c1ccc(O)cc1O		inactive: 9.14%
O=C(Nc1cccc([N+](=O)[O-])c1)NC1CCCCCCC1	inconclusive: 20 µM [quencher, side channel, single point]	
N#Cc1cc2c(nc1SCc1cccnc1)CCCC2	inconclusive: 39.8 µM [fluorescent, side channel, single point]	
CC1CCc2c(sc(NS(=O)(=O)c3ccccc3)c2C(=O)OC(C)C)C1 (stereo not given)	inconclusive: 39.8 µM [quencher, side channel, single point]	
CCOC(=O)c1nc2ccccc2nc1C	inconclusive: 5.01 µM [quencher, side channel, full curve, poor fit]	
CCOC(=O)c1c(-c2ccccc2)oc2ccc(O)c(CN3CCOCC3)c12		inactive: 7.94%
CCOC(=O)c1nnn(-c2nn3nnnc3c3ccccc23)c1C	inconclusive: 35.5 µM [quencher, side channel, partial curve]	
O=C(CCC1CCCC1)NCCCNC(=O)CCC1CCCC1		inactive: -5.96%
O=C(Nc1ccc([N+](=O)[O-])cc1)c1ccccc1F	inconclusive: 14.1 µM [quencher, side channel, partial curve]	

Compound	Potency	activity change, negative = inhibition
CO/N=C(\c1nonc1N)N1CCN(c2ccc(Cl)cc2[N+](=O)[O-])CC1	inconclusive: 14.1 µM [quencher, side channel, partial curve]	
CCN1C(=O)S/C(=C\c2ccc(N3CCOCC3)cc2C)C1=O	inconclusive: 2.82 µM [quencher, side channel, full curve, poor fit]	
O=C(CN1C(=O)S/C(=C\C=C\c2ccccc2)C1=O)NC1CCS(=O)(=O)C1 (stereo not given)	inconclusive: 31.6 µM [quencher, side channel, single point]	
CCn1c(SC(=O)NC2CCCCC2)nnc1-c1cccs1	inconclusive: 5.62 µM [quencher, side channel, single point]	
O=c1[nH][nH]c(=O)c2c(NS(=O)(=O)c3ccccc3)cccc12	inconclusive: 22.4 µM [quencher, side channel, single point]	
O=C(O)[C@H](Cc1c[nH]c2ccccc12)Nc1ncccc1[N+](=O)[O-]	inconclusive: 15.8 µM [quencher, side channel, partial curve]	
COc1ccccc1CNC(=O)Cn1cccc1C(=O)c1ccccc1C	inconclusive: 6.31 µM [fluorescent, side channel, single point]	
O=C1C(=C(c2ccccc2)c2ccccc2)Nc2ccccc21	inconclusive: 15.8 µM [quencher, partial curve]	
Cc1ccc([N+](=O)[O-])cc1N=Cc1ccc(Br)s1	inconclusive: 31.6 µM [quencher, side channel, single point]	
Cc1ccc(-c2ccc(=O)n(CC(=O)NCCN(C)C)n2)cc1	inconclusive: 22.4 µM [quencher, side channel, single point]	
COc1ccc(CNC(=O)C2=CC(c3ccc(OC)c(OC)c3)=NS(=O)(=O)N2C)cc1	inconclusive: 15.8 µM [quencher, side channel, partial curve]	
O=C(O)/C=C/C(=O)Nc1ccc2nccnc2c1	inconclusive: 22.4 µM [quencher, side channel, single point]	
CSc1nnc2c(n1)OC=Nc1ccccc1-2	inconclusive: 7.08 µM [quencher, side channel, full curve]	
Cc1[nH]n(-c2cccc3ccccc23)c(=O)c1/C=N/NC(=O)c1cccc([N+](=O)[O-])c1	inconclusive: 11.2 µM [quencher, side channel, partial curve]	
O=C1c2cccc3cccc(c23)C(=O)N1CCCCCc1n[nH]c(=S)o1	inconclusive: 39.8 µM [quencher, side channel, single point]	
CCn1c(SCC(=O)N2CCCc3ccccc32)nnc1-c1cccs1		inactive: 0.301%
COc1ccc2ccccc2c1/C=N/NC(=O)c1cccc(Br)c1		inactive: -5.19%
O=C(NNc1ccccc1[N+](=O)[O-])NC1CCCCC1	inconclusive: 20 µM [quencher, single point]	
CC(=O)NCC(=O)OCC(=O)Nc1nc(-c2ccccc2)cs1	inconclusive: 12.6 µM [inhibitor, single point]	
COc1ccc2c(c1)CC/C(=C\Nc1ccc3c(c1)OCO3)C2=O	inconclusive: 28.2 µM [quencher, side channel, partial curve]	

Compound	Potency	activity change, negative = inhibition
OC(CNCCc1ccc(C(F)(F)F)cc1)COc1cccc2ccccc12 (stereo not given)		inactive: -20.1%
C/C(=N\NC(=S)NCc1ccccc1)c1cccs1	inconclusive: 25.1 µM [quencher, side channel, single point]	
COc1ccccc1N1CCN(CCCNC(=O)C2CCCN(c3ncnc4c3nc3n4CCCCC3)C2)CC1 (stereo not given)		inactive: -9.07%
COc1cc(OC)cc(C(=O)NC(C)CNc2ccc(Cl)cc2[N+](=O)[O-])c1 (stereo not given)	inconclusive: 15.8 µM [quencher, side channel, partial curve]	
COc1ccc(-n2c(SCC(=O)Nc3cc(C)on3)nc3c(c2=O)SCC3)cc1	inconclusive: 7.08 µM [quencher, side channel, single point]	
CC(C)[C@H](NC(=O)OC(C)(C)C)C(=O)N/N=C/c1cccc2nccnc12	inconclusive: 14.1 µM [quencher, side channel, partial curve]	
Cc1nn(C)cc1C(C)NC(=O)c1cc(COc2cccc3cnccc23)on1 (stereo not given)	inconclusive: 25.1 µM [quencher, side channel, single point]	
O=C(CCCOc1ccccc1)NCCc1ccccc1	inconclusive: 7.08 µM [fluorescent, side channel, single point]	
O=C(CNC(=O)c1ccccc1C(F)(F)F)N/N=C/c1cccs1	inconclusive: 17.8 µM [quencher, side channel, partial curve]	
O=C(Nc1cccc([N+](=O)[O-])c1)Nc1cccs1	inconclusive: 14.1 µM [quencher, side channel, partial curve]	
C/C(=N\NS(=O)(=O)c1ccc([N+](=O)[O-])cc1)c1ccc2c(c1)OCO2	inconclusive: 35.5 µM [quencher, side channel, single point]	
O=C(O)c1cc(S(=O)(=O)Nc2ccc3c(c2)OCCO3)c(Cl)cc1Cl		inconclusive: -3% [phenotype inactive]
Cc1ccc(Nc2nc(CSc3nnc(-c4ccccc4C)n3C)cs2)cc1	inconclusive: 0.1 µM [fluorescent, side channel, full curve, poor fit]	
CCOc1ccc(OCC)c(N=c2oc3c(C)ncc(CO)c3cc2C(N)=O)c1	inconclusive: 6.31 µM [quencher, side channel, partial curve]	
O=[N+]([O-])c1ccccc1/C=C/c1ccc2ccccc2n1	inconclusive: 7.94 µM [quencher, side channel, partial curve]	
O=C(O)C1Nc2c(Cl)cc(Cl)cc2C2C=CCC12 (stereo not given)		inactive: 17.3%
Cc1nn(-c2ccc3ccccc3c2)c(=O)c2ccccc12		inactive: 6.97%
Cn1nccc1C(=O)N1CCc2ccccc21	inconclusive: 0.562 µM [quencher, side channel, single point]	
O=C(O)c1ccc(COc2ccccc2/C=C2\NC(=O)N(Cc3ccccc3F)C2=O)cc1	inconclusive: 28.2 µM [quencher, side channel, partial curve]	
Cc1ccc(-n2c(O)c(C=NC3CCS(=O)(=O)C3)c3ccccc3c2=O)cc1 (stereo not given)	inconclusive: 31.6 µM [quencher, side channel, single point]	
